In PMC12785155, “Phytochrome B stabilizes the KNOX transcription factor BP/KNAT1 to promote light-initiated seed germination in Arabidopsis thaliana”:
Read-outs that look alike come from different tables or passages of the source. These are yes or no findings as the source states them, for the method shown. For some assays here: In cells and extracts the contact can be indirect. Some results given as binding are weak or reduced against the parent protein; the word gives no strength. Where a sequence is shown, tags or fusion partners need not be part of it.

Protein sequences, listed by entry. Tags and fused reporters are not part of them. Lines headed by an entry give the natural chain unless they say otherwise; changes in a name come on top.
UniProt P14713: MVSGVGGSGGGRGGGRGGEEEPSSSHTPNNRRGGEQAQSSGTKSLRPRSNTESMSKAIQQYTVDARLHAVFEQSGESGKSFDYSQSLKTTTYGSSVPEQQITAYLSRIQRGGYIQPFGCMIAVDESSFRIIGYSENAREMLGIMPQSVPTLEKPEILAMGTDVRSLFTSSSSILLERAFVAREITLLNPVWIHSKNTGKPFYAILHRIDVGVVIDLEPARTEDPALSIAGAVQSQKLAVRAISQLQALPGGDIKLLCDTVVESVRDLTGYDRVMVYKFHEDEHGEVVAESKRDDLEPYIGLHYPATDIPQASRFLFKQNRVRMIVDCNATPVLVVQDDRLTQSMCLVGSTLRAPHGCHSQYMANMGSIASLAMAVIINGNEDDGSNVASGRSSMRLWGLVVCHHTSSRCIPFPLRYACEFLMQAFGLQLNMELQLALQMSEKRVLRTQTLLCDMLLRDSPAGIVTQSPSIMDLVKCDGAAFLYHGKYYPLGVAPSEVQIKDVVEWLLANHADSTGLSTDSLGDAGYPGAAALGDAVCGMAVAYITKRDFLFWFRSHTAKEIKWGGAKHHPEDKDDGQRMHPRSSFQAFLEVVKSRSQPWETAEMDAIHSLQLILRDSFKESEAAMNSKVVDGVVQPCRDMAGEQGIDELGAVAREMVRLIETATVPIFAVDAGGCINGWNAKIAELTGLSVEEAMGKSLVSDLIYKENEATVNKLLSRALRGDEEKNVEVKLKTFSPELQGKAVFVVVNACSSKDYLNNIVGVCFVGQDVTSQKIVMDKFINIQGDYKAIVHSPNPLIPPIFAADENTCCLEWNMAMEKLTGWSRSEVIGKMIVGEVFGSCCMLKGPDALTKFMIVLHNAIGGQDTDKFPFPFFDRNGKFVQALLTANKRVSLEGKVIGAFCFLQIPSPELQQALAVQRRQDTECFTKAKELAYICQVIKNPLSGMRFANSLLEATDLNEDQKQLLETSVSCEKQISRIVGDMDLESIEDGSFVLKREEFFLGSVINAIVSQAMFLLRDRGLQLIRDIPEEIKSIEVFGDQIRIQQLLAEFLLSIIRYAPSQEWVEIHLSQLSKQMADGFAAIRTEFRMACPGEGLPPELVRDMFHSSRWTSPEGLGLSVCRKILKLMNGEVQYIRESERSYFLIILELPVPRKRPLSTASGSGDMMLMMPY

Legend:
[1] = molecular target: T1, BD-BP (B…US/KNAT1 fused to the DNA-binding domain of GAL4) (Arabidopsis thaliana) (UniProt P46639); experiment: two-hybrid; GAL4 AD (pGADT7) and BD (pGBKT7) fusions co-transformed into S. cerevisiae AH109; growth on SD/-Trp/-Leu/-His/-Ade dropout medium
T1 sequence: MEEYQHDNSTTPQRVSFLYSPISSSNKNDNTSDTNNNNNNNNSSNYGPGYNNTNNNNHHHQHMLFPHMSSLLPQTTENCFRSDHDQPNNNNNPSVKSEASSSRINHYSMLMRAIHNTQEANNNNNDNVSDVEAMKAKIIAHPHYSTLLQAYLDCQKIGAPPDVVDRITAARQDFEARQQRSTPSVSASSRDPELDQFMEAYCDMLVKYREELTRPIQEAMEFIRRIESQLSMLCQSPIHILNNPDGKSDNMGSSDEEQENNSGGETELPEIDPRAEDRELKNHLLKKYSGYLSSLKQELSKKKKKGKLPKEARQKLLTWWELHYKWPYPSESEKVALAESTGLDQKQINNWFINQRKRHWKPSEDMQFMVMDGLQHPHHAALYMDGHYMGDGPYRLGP

[2] = molecular target: T2, BP-nLUC (BP fused to the N terminus of luciferase) (Arabidopsis thaliana) (UniProt P46639); experiment: split reporter; firefly luciferase complementation imaging (LCI); nLUC and cLUC fusions co-expressed in Nicotiana benthamiana leaves by Agrobacterium GV3101, 2 days at 22°C
T2 sequence: T1 sequence

[3] = molecular target: T3, BP-GUS (BP fused to GUS, 35S:BP-GUS transgenic line) (Arabidopsis thaliana) (UniProt P46639); experiment: co-IP; total protein of imbibed 35S:BP-GUS seeds treated with FR or FR/R and kept 24 h in darkness; immunoprecipitated with anti-GUS antibody and protein A agarose at 4°C, blotted with anti-phyB antibody
T3 sequence: T1 sequence

[4] = molecular target: T1, BD-BP (B…US/KNAT1 fused to the DNA-binding domain of GAL4) (Arabidopsis thaliana); experiment: two-hybrid; GAL4 AD (pGADT7) and BD (pGBKT7) fusions co-transformed into S. cerevisiae AH109; growth on SD/-Trp/-Leu/-His/-Ade dropout medium; remark: listed apart in the source
[5] = molecular target: T2, BP-nLUC (BP fused to the N terminus of luciferase) (Arabidopsis thaliana); experiment: split reporter; firefly luciferase complementation imaging (LCI); nLUC and cLUC fusions co-expressed in Nicotiana benthamiana leaves by Agrobacterium GV3101, 2 days at 22°C; remark: listed apart in the source
[6] = molecular target: T4, BD-PIF1 (Phytochrome-Interacting Factor 1) (Arabidopsis thaliana) (UniProt Q8GZM7); experiment: two-hybrid; GAL4 AD (pGADT7) and BD (pGBKT7) fusions co-transformed into S. cerevisiae AH109; growth on SD/-Trp/-Leu/-His/-Ade dropout medium
T4 sequence: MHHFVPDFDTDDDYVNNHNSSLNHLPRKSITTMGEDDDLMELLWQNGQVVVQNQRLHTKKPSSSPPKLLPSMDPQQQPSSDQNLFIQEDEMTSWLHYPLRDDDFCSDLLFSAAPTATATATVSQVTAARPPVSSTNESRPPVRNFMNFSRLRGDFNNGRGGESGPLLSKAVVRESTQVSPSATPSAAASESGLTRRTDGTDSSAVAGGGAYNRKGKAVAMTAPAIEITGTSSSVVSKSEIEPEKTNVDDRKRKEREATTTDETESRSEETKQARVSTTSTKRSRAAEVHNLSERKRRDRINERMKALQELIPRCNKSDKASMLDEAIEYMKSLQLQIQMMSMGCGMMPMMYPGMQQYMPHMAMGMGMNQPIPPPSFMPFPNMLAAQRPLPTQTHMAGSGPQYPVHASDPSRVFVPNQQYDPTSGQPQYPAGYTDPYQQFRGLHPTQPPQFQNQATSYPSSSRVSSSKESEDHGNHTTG

AD-phyB (phytochrome B fused to the activation domain of GAL4) (from UniProt P14713 1-1172)
binding [1]: binds

C terminus of phyB (600-1172 aa) fused to AD (from UniProt P14713 600-1172) (domain or fragment)
binding [1]: no binding

N terminus of phyB (1-650 aa) fused to AD (from UniProt P14713 1-650) (domain or fragment)
binding [1]: binds

phyB-cLUC (phyB fused to the C terminus of luciferase) (from UniProt P14713 1-1172)
binding [2]: binds

phytochrome B (phyB), endogenous in imbibed seeds (from UniProt P14713 1-1172)
binding [3]: binds

B1: BD-BP (B…US/KNAT1 fused to the DNA-binding domain of GAL4) (protein, UniProt P46639 1-398)
chain: T1 sequence
binding [4]: binds

B2: BP-nLUC (BP fused to the N terminus of luciferase) (protein, UniProt P46639 1-398)
chain: T1 sequence
binding [5]: binds

B3: AD-BP (protein, UniProt P46639 1-398)
chain: T1 sequence
binding [6]: no binding
